# The other results are listed elsewhere or left out. The energies were worked out here from pooled read counts, against the library average; single values are noisy.
# Biological target: T1, Pho4 (S. cerevisiae) (UniProt P07270)
# T1 sequence: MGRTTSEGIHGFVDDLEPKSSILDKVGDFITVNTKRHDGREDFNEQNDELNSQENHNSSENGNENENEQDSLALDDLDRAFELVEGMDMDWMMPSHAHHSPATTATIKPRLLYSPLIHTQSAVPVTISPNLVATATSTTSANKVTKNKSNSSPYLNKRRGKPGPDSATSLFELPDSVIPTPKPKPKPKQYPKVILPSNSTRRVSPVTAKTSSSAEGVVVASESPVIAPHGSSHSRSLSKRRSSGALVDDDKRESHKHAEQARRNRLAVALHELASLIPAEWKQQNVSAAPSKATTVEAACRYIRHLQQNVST
# Test: relative binding free energy (BET-seq); higher = weaker binding
# Conditions: reference: library average
row,Sequence,relative binding free energy [kcal/mol]
1,GGGGCCACGTGAGTTG,0.15
2,CGTGTCACGTGGGCTG,-0.06
3,TCGAACACGTGGGGGT,-0.08
4,GGGTGCACGTGCGCTT,-0.24
5,TGACACACGTGGGGTT,-0.12
6,GGAGGCACGTGACGTT,0.13
7,GGCATCACGTGGTTGG,0.14
8,AATGTCACGTGAGCTG,0.32
9,TTATTCACGTGGGCAT,0.1
10,TTAAGCACGTGTAGCT,0.04
11,GGTGACACGTGGTCTG,0.04
12,GCAGGCACGTGTAGAG,0.03
13,TTCTGCACGTGTATCG,0.08
14,GGGTGCACGTGTAATG,0.13
15,GTATTCACGTGAACGT,0.25
16,TGACTCACGTGGATTG,0.25
17,TTGTACACGTGTATAC,0.22
18,AGGCACACGTGGGAGG,-0.14
19,AATCGCACGTGATTTG,0.15
20,ATGTACACGTGTGTCG,0.05
21,AGGGGCACGTGCAAGT,-0.29

row,Sequence,relative binding free energy [kcal/mol]
1,GGATACACGTGCTGGT,0.11
2,AGTAGCACGTGGGGTC,-0.22
3,AGTAACACGTGTAGGG,0.18
4,TAGTACACGTGGTGAG,-0.05
5,ATGTACACGTGTTAAT,0.12
6,TGAGTCACGTGAGAGA,0.32
7,AATGTCACGTGGGAGA,0.03
8,TGGGGCACGTGGCGTA,-0.29
9,ATATGCACGTGTCGGG,-0.16
10,GGATTCACGTGTGACG,0.25
11,GGGAGCACGTGTATGG,0
12,AAAGTCACGTGTCTTG,0.2
13,TAGGGCACGTGGAGAG,-0.09
14,GGGAGCACGTGTTAGC,-0.08
15,GTGATCACGTGATGTG,0.25
16,GTACCCACGTGGTGGG,-0.05
17,AGGATCACGTGATTTT,0.29
18,CAGTACACGTGTGGTA,0.1
19,TACGGCACGTGTTTCT,0.13
20,GGTGGCACGTGCGTGG,-0.11
21,TTTTACACGTGGACTG,0.22

row,Sequence,relative binding free energy [kcal/mol]
1,TTAGGCACGTGACGCT,0
2,CCGTGCACGTGTGTGG,-0.21
3,TAAGTCACGTGCGGGT,0.1
4,GGTAACACGTGGGTCG,-0.17
5,TTTATCACGTGTAAGC,0.29
6,TATCGCACGTGTATGG,-0.08
7,GGCGTCACGTGTGTCT,0.12
8,TTGTACACGTGGTGTG,0
9,TAATCCACGTGGTGGG,-0.12
10,CGTTTCACGTGTGGGA,0.2
11,CTGGCCACGTGTGGGA,0
12,CTGAACACGTGGGTGT,0.03
13,GTTAGCACGTGGATCG,-0.07
14,TGGGACACGTGATTGG,0.21
15,GGTGTCACGTGTTCGG,0.1
16,CTTATCACGTGATGGT,0.33
17,AGGGTCACGTGCATTT,0.05
18,TAGTTCACGTGTCAGT,0.21
19,TGAGGCACGTGTGTCA,0.11
20,TCGTGCACGTGGTTTG,-0.07
21,TTTGTCACGTGGCATG,0.05

# — the BET-seq Pho4 binding data (Le et al. 2018)
